# Measured values reported in the supplement of paper PMC10037445.
# In all, about 2,900 compounds were measured (“NF-kB SEAP reporter activity, fold change vs agonist alone”: median about 0.99, highest 2% from about 2.6 on). Some of the results follow.
# Experiments:
# RAW-Dual [1] = test: NF-kB SEAP reporter activity, fold change vs agonist alone; cytotoxicity flag (confluency mask): not cytotoxic; higher = enhanced NF-kB activity
# Outline: (§1)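 After 50 nL of library stock was delivered by pin tool to RAW-Dual macrophages (50,000 cells/well, DMEM, 384-well plates), a PRR agonist was added 1 h later and the plates were kept at 37 °C, 5% CO2. Twenty hours later, IRF was read from supernatant by QuantiLuc luminescence and NF-κB by QuantiBlue absorbance at 620 nm. Reporter activity is stated as fold change over agonist-alone wells. Wells with IncuCyte confluency under 70% of agonist controls in both mask sets were counted as cytotoxic.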
# RAW-Dual [2] = test: NF-kB SEAP reporter activity, fold change vs agonist alone; higher = enhanced NF-kB activity
# Outline: as §1
# RAW-Dual [3] = test: NF-kB SEAP reporter activity, fold change vs agonist alone; cytotoxicity flag (confluency mask): cytotoxic (confluency <70% of control); higher = enhanced NF-kB activity
# Outline: as §1
# [4] = agonist: ODN 1826 (TLR9) 0.5 ug/mL
# [5] = agonist: Pam2CSK4 (TLR2/6) 0.1 ug/mL
# [6] = agonist: Pam3CSK4 (TLR2/1) 0.1 ug/mL
# [7] = library stock concentration (final ~1000-fold dilution): 10 mM, cytotoxicity flag (confluency mask): not cytotoxic, agonist: Imiquimod (TLR7) […]
# [8] = library stock concentration (final ~1000-fold dilution): 10 mM, cytotoxicity flag (confluency mask): not cytotoxic, agonist: MPLA (TLR4) […]
# [9] = library stock concentration (final ~1000-fold dilution): 10 mM, cytotoxicity flag (confluency mask): cytotoxic (confluency <70% of control), agonist: Imiquimod (TLR7) […]
# [10] = library stock concentration (final ~1000-fold dilution): 10 mM, cytotoxicity flag (confluency mask): cytotoxic (confluency <70% of control), agonist: MPLA (TLR4) […]
smiles,measurement,setting,value
Cn1c(=O)c2c(ncn2CC2OCCO2)n(C)c1=O (library stock concentration (final ~1000-fold dilution): 10 mM),NF-kB SEAP reporter activity,RAW-Dual [1]; agonist: LPS (TLR4) 0.1 ug/mL,1.05
same,NF-kB SEAP reporter activity,RAW-Dual [1]; [4],0.977
same,NF-kB SEAP reporter activity,RAW-Dual [1]; [5],1.08
same,NF-kB SEAP reporter activity,RAW-Dual [1]; [6],1.07
Cn1c(=O)c2c(ncn2CC2OCCO2)n(C)c1=O,NF-kB SEAP reporter activity,RAW-Dual [2]; [7],0.892
same,NF-kB SEAP reporter activity,RAW-Dual [2]; [8],1.08
CN(C)C(=O)CCSC(SCCC(=O)O)c1cccc(C=Cc2ccc3ccc(Cl)cc3n2)c1 (configuration not stated) (library stock concentration (final ~1000-fold dilution): 10 mM),NF-kB SEAP reporter activity,RAW-Dual [1]; agonist: LPS (TLR4) 0.1 ug/mL,1.5
same,NF-kB SEAP reporter activity,RAW-Dual [1]; [4],1.12
same,NF-kB SEAP reporter activity,RAW-Dual [1]; [5],0.936
same,NF-kB SEAP reporter activity,RAW-Dual [1]; [6],0.945
CN(C)C(=O)CCSC(SCCC(=O)O)c1cccc(C=Cc2ccc3ccc(Cl)cc3n2)c1 (configuration not stated),NF-kB SEAP reporter activity,RAW-Dual [2]; [7],0.973
same,NF-kB SEAP reporter activity,RAW-Dual [2]; [8],1.05
O=C(OCC1OC(OC(=O)c2cc(O)c(O)c(OC(=O)c3cc(O)c(O)c(O)c3)c2)C(OC(=O)c2cc(O)c(O)c(OC(=O)c3cc(O)c(O)c(O)c3)c2)C(OC(=O)c2cc(O)c(O)c(OC(=O)c3cc(O)c(O)c(O)c3)c2)C1OC(=O)c1cc(O)c(O)c(OC(=O)c2cc(O)c(O)c(O)c2)c1)c1cc(O)c(O)c(OC(=O)c2cc(O)c(O)c(O)c2)c1 (configuration not stated) (library stock concentration (final ~1000-fold dilution): 10 mM),NF-kB SEAP reporter activity,RAW-Dual [1]; agonist: LPS (TLR4) 0.1 ug/mL,1.25
same,NF-kB SEAP reporter activity,RAW-Dual [1]; [4],0.116
same,NF-kB SEAP reporter activity,RAW-Dual [1]; [5],1.04
same,NF-kB SEAP reporter activity,RAW-Dual [1]; [6],0.185
O=C(OCC1OC(OC(=O)c2cc(O)c(O)c(OC(=O)c3cc(O)c(O)c(O)c3)c2)C(OC(=O)c2cc(O)c(O)c(OC(=O)c3cc(O)c(O)c(O)c3)c2)C(OC(=O)c2cc(O)c(O)c(OC(=O)c3cc(O)c(O)c(O)c3)c2)C1OC(=O)c1cc(O)c(O)c(OC(=O)c2cc(O)c(O)c(O)c2)c1)c1cc(O)c(O)c(OC(=O)c2cc(O)c(O)c(O)c2)c1 (configuration not stated),NF-kB SEAP reporter activity,RAW-Dual [2]; [7],0.144
same,NF-kB SEAP reporter activity,RAW-Dual [2]; [8],0.319
COc1ccc(Oc2cc(C)c(-c3csc(NC(=O)c4ccncc4)n3)c(C)c2)cc1 (library stock concentration (final ~1000-fold dilution): 10 mM),NF-kB SEAP reporter activity,RAW-Dual [1]; agonist: LPS (TLR4) 0.1 ug/mL,1.98
same,NF-kB SEAP reporter activity,RAW-Dual [1]; [4],1.37
same,NF-kB SEAP reporter activity,RAW-Dual [1]; [5],0.395
same,NF-kB SEAP reporter activity,RAW-Dual [1]; [6],0.431
COc1ccc(Oc2cc(C)c(-c3csc(NC(=O)c4ccncc4)n3)c(C)c2)cc1,NF-kB SEAP reporter activity,RAW-Dual [2]; [7],1.09
same,NF-kB SEAP reporter activity,RAW-Dual [2]; [8],1.68
COCC(=O)NC/C=C/c1ccc2ncnc(Nc3ccc(Oc4ccc(C)nc4)c(C)c3)c2c1,NF-kB SEAP reporter activity,RAW-Dual [2]; [7],0.843
same,NF-kB SEAP reporter activity,RAW-Dual [2]; [8],1.08
COCC(=O)NC/C=C/c1ccc2ncnc(Nc3ccc(Oc4ccc(C)nc4)c(C)c3)c2c1 (library stock concentration (final ~1000-fold dilution): 10 mM),NF-kB SEAP reporter activity,RAW-Dual [1]; agonist: LPS (TLR4) 0.1 ug/mL,1.22
same,NF-kB SEAP reporter activity,RAW-Dual [1]; [4],0.832
same,NF-kB SEAP reporter activity,RAW-Dual [1]; [5],0.987
same,NF-kB SEAP reporter activity,RAW-Dual [1]; [6],1.15
CCCc1cc(C)[nH]c(=O)c1CNC(=O)c1cc(-c2ccnc(N3CCN(C)CC3)c2)cc2c1cnn2C(C)C (library stock concentration (final ~1000-fold dilution): 2 mM),NF-kB SEAP reporter activity,RAW-Dual [1]; agonist: LPS (TLR4) 0.1 ug/mL,1.44
same,NF-kB SEAP reporter activity,RAW-Dual [1]; [4],1.07
same,NF-kB SEAP reporter activity,RAW-Dual [1]; [5],1.12
same,NF-kB SEAP reporter activity,RAW-Dual [1]; [6],1.24
CCCc1cc(C)[nH]c(=O)c1CNC(=O)c1cc(-c2ccnc(N3CCN(C)CC3)c2)cc2c1cnn2C(C)C,NF-kB SEAP reporter activity,"RAW-Dual [2]; library stock concentration (final ~1000-fold dilution): 2 mM, cytotoxicity flag (confluency mask): not cytotoxic, agonist: Imiquimod (TLR7) […]",0.989
same,NF-kB SEAP reporter activity,"RAW-Dual [2]; library stock concentration (final ~1000-fold dilution): 2 mM, cytotoxicity flag (confluency mask): not cytotoxic, agonist: MPLA (TLR4) […]",1.03
CN(CCCCCCCCCCN(C)C(=O)Oc1cccc([N+](C)(C)C)c1)C(=O)Oc1cccc([N+](C)(C)C)c1,NF-kB SEAP reporter activity,RAW-Dual [2]; [7],0.95
same,NF-kB SEAP reporter activity,RAW-Dual [2]; [8],1.04
CN(CCCCCCCCCCN(C)C(=O)Oc1cccc([N+](C)(C)C)c1)C(=O)Oc1cccc([N+](C)(C)C)c1 (library stock concentration (final ~1000-fold dilution): 10 mM),NF-kB SEAP reporter activity,RAW-Dual [1]; agonist: LPS (TLR4) 0.1 ug/mL,1.26
same,NF-kB SEAP reporter activity,RAW-Dual [1]; [4],0.95
same,NF-kB SEAP reporter activity,RAW-Dual [1]; [5],1.11
same,NF-kB SEAP reporter activity,RAW-Dual [1]; [6],1.12
Cc1c(C(=O)Nc2ccc(N3CC(C)OC(C)C3)nc2)cccc1-c1ccc(OC(F)(F)F)cc1 (configuration not stated),NF-kB SEAP reporter activity,RAW-Dual [2]; [7],0.808
same,NF-kB SEAP reporter activity,RAW-Dual [2]; [8],0.657
Cc1c(C(=O)Nc2ccc(N3CC(C)OC(C)C3)nc2)cccc1-c1ccc(OC(F)(F)F)cc1 (configuration not stated) (library stock concentration (final ~1000-fold dilution): 10 mM),NF-kB SEAP reporter activity,RAW-Dual [1]; agonist: LPS (TLR4) 0.1 ug/mL,1.13
same,NF-kB SEAP reporter activity,RAW-Dual [1]; [4],1.35
same,NF-kB SEAP reporter activity,RAW-Dual [1]; [5],0.839
same,NF-kB SEAP reporter activity,RAW-Dual [1]; [6],1.12
CCCCC(CC)COC(=O)CC(C(=O)OCC(CC)CCCC)S(=O)(=O)O (configuration not stated) (library stock concentration (final ~1000-fold dilution): 10 mM),NF-kB SEAP reporter activity,RAW-Dual [3]; agonist: LPS (TLR4) 0.1 ug/mL,0.759
same,NF-kB SEAP reporter activity,RAW-Dual [3]; [4],0.813
same,NF-kB SEAP reporter activity,RAW-Dual [3]; [5],0.803
same,NF-kB SEAP reporter activity,RAW-Dual [3]; [6],0.79
CCCCC(CC)COC(=O)CC(C(=O)OCC(CC)CCCC)S(=O)(=O)O (configuration not stated),NF-kB SEAP reporter activity,RAW-Dual [2]; [9],0.887
same,NF-kB SEAP reporter activity,RAW-Dual [2]; [10],0.81
C=CC1CN2CCC1CC2C(O)c1ccnc2ccc(OC)cc12.C=CC1CN2CCC1CC2C(O)c1ccnc2ccc(OC)cc12.O.O.O=S(=O)(O)O (configuration not stated) (library stock concentration (final ~1000-fold dilution): 10 mM),NF-kB SEAP reporter activity,RAW-Dual [1]; agonist: LPS (TLR4) 0.1 ug/mL,1.16
same,NF-kB SEAP reporter activity,RAW-Dual [1]; [4],0.531
same,NF-kB SEAP reporter activity,RAW-Dual [1]; [5],1.35
same,NF-kB SEAP reporter activity,RAW-Dual [1]; [6],1.05
C=CC1CN2CCC1CC2C(O)c1ccnc2ccc(OC)cc12.C=CC1CN2CCC1CC2C(O)c1ccnc2ccc(OC)cc12.O.O.O=S(=O)(O)O (configuration not stated),NF-kB SEAP reporter activity,RAW-Dual [2]; [7],1.06
same,NF-kB SEAP reporter activity,RAW-Dual [2]; [8],0.931
CNCCC(Oc1ccc(C(F)(F)F)cc1)c1ccccc1.Cl (configuration not stated),NF-kB SEAP reporter activity,RAW-Dual [2]; [9],1.46
same,NF-kB SEAP reporter activity,RAW-Dual [2]; [10],1.43
CNCCC(Oc1ccc(C(F)(F)F)cc1)c1ccccc1.Cl (configuration not stated) (library stock concentration (final ~1000-fold dilution): 10 mM),NF-kB SEAP reporter activity,RAW-Dual [3]; agonist: LPS (TLR4) 0.1 ug/mL,1.16
same,NF-kB SEAP reporter activity,RAW-Dual [3]; [4],0.851
same,NF-kB SEAP reporter activity,RAW-Dual [3]; [5],0.553
same,NF-kB SEAP reporter activity,RAW-Dual [3]; [6],0.698
NC(CO)(CO)CO.O=C(c1ccccc1)c1ccc2n1CCC2C(=O)O (configuration not stated),NF-kB SEAP reporter activity,RAW-Dual [2]; [7],0.873
same,NF-kB SEAP reporter activity,RAW-Dual [2]; [8],0.938
NC(CO)(CO)CO.O=C(c1ccccc1)c1ccc2n1CCC2C(=O)O (configuration not stated) (library stock concentration (final ~1000-fold dilution): 10 mM),NF-kB SEAP reporter activity,RAW-Dual [1]; agonist: LPS (TLR4) 0.1 ug/mL,1.07
same,NF-kB SEAP reporter activity,RAW-Dual [1]; [4],0.849
same,NF-kB SEAP reporter activity,RAW-Dual [1]; [5],0.961
same,NF-kB SEAP reporter activity,RAW-Dual [1]; [6],1.28
